Experimental data taken from paper PMC4336329 (PLoS ONE, 2015).
In all, about 310,000 compounds went through this assay and about 2,200 (0.71%) showed an effect of 50% or more. The effect is printed as a negative number. The list shows a part of the results.

Molecular target: human ether-à-go-go-related gene (hERG) potassium channel (human, UniProt Q12809)
Test: primary screen, population patch clamp on CHO cells stably expressing hERG

Sequence of human ether-à-go-go-related gene (hERG) potassium channel (Q12809 whole entry, looked up): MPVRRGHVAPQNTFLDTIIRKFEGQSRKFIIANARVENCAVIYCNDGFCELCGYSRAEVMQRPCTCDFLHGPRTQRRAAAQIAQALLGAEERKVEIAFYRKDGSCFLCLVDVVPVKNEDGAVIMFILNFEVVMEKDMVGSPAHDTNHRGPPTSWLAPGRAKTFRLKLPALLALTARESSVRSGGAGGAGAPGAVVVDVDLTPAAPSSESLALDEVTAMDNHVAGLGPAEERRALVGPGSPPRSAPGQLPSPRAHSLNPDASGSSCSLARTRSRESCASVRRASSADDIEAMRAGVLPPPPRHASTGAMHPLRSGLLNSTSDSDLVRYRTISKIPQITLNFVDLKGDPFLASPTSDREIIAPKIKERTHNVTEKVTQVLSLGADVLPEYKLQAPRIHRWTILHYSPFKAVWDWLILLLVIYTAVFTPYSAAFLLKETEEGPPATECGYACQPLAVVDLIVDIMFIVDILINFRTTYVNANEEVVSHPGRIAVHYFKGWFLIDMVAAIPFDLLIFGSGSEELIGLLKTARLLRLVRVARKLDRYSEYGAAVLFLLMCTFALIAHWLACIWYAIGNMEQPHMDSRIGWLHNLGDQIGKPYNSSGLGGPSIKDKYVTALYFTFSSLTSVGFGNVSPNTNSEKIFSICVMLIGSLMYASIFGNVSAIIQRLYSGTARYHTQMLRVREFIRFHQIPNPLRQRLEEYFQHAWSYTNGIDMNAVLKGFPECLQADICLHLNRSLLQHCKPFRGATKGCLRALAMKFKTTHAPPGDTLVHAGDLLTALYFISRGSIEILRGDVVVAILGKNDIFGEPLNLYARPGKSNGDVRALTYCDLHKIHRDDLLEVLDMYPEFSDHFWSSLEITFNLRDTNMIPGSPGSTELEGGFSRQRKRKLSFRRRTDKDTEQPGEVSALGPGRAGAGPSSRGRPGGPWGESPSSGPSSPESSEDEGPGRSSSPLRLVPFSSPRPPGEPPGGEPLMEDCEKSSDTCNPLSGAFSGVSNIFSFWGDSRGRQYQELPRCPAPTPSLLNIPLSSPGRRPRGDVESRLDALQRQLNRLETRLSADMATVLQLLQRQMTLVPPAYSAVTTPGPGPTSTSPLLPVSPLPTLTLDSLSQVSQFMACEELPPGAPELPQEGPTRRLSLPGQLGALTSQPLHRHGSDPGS

Compound | hERG current change (%, negative = inhibition) at 1uM
Cc1ccc(OCCN2C(=O)S/C(=C\c3ccc(C)o3)C2=O)cc1 | 13.7%
Cc1ccc(/C=N/NC(=O)c2ccc(Cn3cc([N+](=O)[O-])cn3)o2)cc1 | -16.7%
CC(C)N(Cc1ccccc1)CC(O)COc1ccc(S(=O)(=O)N2CCOCC2)cc1Cl (stereo not drawn) | 0.591%
CCOC(=O)N1CCC(C(=O)Nc2ccc(OCC)cc2)CC1 | 5.09%
COc1ccc2c3c([nH]c2c1)C(C)=NCC3 | 2.94%
c1ccc2nc3c(nc2c1)[nH]c1ccccc13 | -0.64%
COc1cccc2cc(C(=O)NCc3ccc(F)cc3)c(=N)oc12 | 7.15%
CCCCN(C(=O)CNC(=O)c1ccco1)C(C(=O)NC1CCCCC1)c1ccc(OC)cc1OC (stereo not drawn) | 5.05%
NC(=O)CC[C@@H]1NC(=O)[C@H](Cc2ccc(O)cc2)NC(=O)c2cc([N+](=O)[O-])cc(F)c2OCC[C@@H](C(N)=O)NC1=O | 14.1%
Cc1cc(C)c(S(C)(=O)=O)c(S(=O)c2ccc(Cl)cc2)n1 (stereo not drawn) | 3.19%
Cc1cc(C)nc(/N=C(\N)Nc2cccc(OCc3ccccc3)c2)n1 | -41.9%
O=S(=O)(NCC1CCCO1)c1ccc(Br)s1 (stereo not drawn) | 11.5%
COc1ccccc1NC(=O)CCCc1nnc2n(C)c(=O)c3sccc3n12 | 17.5%
Cc1ccc(NS(=O)(=O)c2cc(C(=O)N3CCN(CCO)CC3)ccc2C)cc1 | 5.41%
O=C1Nc2ccccc2C(O)(C(=O)NC2CC2)N1c1ccc(Cl)c(Cl)c1 (stereo not drawn) | 3.89%
CC(=O)N=C1SC2CS(=O)(=O)CC2N1c1ccccc1Cl (stereo not drawn) | 12.4%
O=C(NCc1ccco1)C(c1ccncc1)N(C(=O)Cc1cccs1)c1ccccc1 (stereo not drawn) | -4.34%
O=C(CSc1n[nH]c(=O)[nH]c1=O)NCC1CCCCC1 | 3.79%
C/C(=N\OC(=O)c1ccc(Cl)cc1)c1sc(-c2ccccc2)nc1C | 4.56%
S=C(NCCCc1ccccc1)NCc1ccccc1 | 9.51%
Cc1ccc(Cn2c(C(CO)Nc3nc(-c4ccc(Cl)c([N+](=O)[O-])c4)cs3)nc3ccccc32)cc1 (stereo not drawn) | 8.36%
OCCC#Cc1c(-c2ccsc2)sc2ccccc12 | 6.26%

Compound | hERG current change (%, negative = inhibition) at 1uM
COc1ccc(C2N(c3ccc(OC)cc3)C(=O)C3CCCN32)cc1 (stereo not drawn) | 10.4%
COc1cc2[nH]c(=S)nc(NCc3ccc(C)cc3)c2cc1OC | 11.9%
CC(O)(CS(=O)(=O)c1ccc(F)cc1)C(=O)Nc1ccc(C#N)c(C(F)(F)F)c1 (stereo not drawn) | 2.31%
Cc1nn(C)cc1S(=O)(=O)N1CCN(Cc2cccc(Cl)c2)CC1 | 8.22%
COc1ccc(/C=C/CN2CCN(Cc3cccc(OC)c3)C(CCO)C2)cc1 (stereo not drawn) | -20.7%
O=c1c([N+](=O)[O-])c(N2CCOCC2)c2ccccc2n1-c1ccccc1 | 8.47%
Cc1ccccc1OCC(=O)NC(C)c1ccccc1 (stereo not drawn) | 13.5%
CN(c1ccccc1)S(=O)(=O)c1cccc(NC(=O)CSc2nnc(C3CC3)n2C)c1 | 16.4%
COc1ccc(OC(C)C(=O)N(C)Cc2nc(-c3ccc(C)cc3)no2)cc1 (stereo not drawn) | 4.24%
COc1ccc(C(=O)N=c2sccn2C)cc1 | 24.4%
CC(=O)c1ccc(N2CCN(C(=O)CCCc3nc4ccccc4s3)CC2)cc1 | -7.74%
COC(=O)Cc1ccc(NC(=S)N2CCN(C)CC2)cc1 | 7.03%
O=C(C[n+]1ccc(C(=O)N/N=C/c2ccc(O)cc2)cc1)c1ccccc1.[Br-] | 4.63%
COc1ccc(C(=O)N2CCN(c3ccc(N4CCOCC4)nn3)CC2)cc1OC | 12.6%
O=C(Cn1cnc2scc(-c3cccc([N+](=O)[O-])c3)c2c1=O)NCc1ccco1 | -11.9%
Cc1ccc(S(=O)(=O)CCC(=O)OCC(=O)NCc2ccc(Cl)cc2)cc1 | 33.1%
COc1ccc(C(CCNCc2ccc(F)cc2)c2ccc(F)cc2)cc1 (stereo not drawn) | -3.35%
COc1ccc(NS(=O)(=O)c2ccc(NC(=O)C3CC3)cc2)cc1 | 16.8%
CSC1=NCCN1S(=O)(=O)c1ccc(NC(C)=O)cc1 | -5.94%
COc1ccc(CNc2oc(C)nc2C#N)cc1 | 1.32%
COC(=O)N/N=C/c1ccccc1OCCOc1ccc(OC)cc1 | 19.5%
O=C(NCC(c1ccco1)N1CCc2ccccc21)c1ccccc1F (stereo not drawn) | 1.96%

Compound | hERG current change (%, negative = inhibition) at 1uM
COc1cccc(C2C3=C(N=c4s/c(=C\c5ccc(O)cc5)c(=O)n42)c2ccccc2CC3)c1OC (stereo not drawn) | 13.1%
CC(N=c1ccccn1C(=O)Nc1ccc(Cl)cc1)c1ccco1 (stereo not drawn) | 12%
CCCn1c(SCC(=O)NC(C)C23CC4CC(CC(C4)C2)C3)n[nH]c1=O (stereo not drawn) | -10.2%
CCO/C=C1/C(=O)N(c2ccccc2OC)C(=O)c2ccccc21 | 13.1%
CC(C)Oc1ccc(C(=O)Nc2ccc(N3CCCC3)cc2)cc1 | 4.58%
CCN1CNC(=S)N(c2cc(C)ccc2C)C1 | 12.3%
COc1ccccc1N(CC(=O)N1CCCCC1)S(=O)(=O)c1ccccc1 | 10.1%
O=C(CSc1nc(-c2ccccc2)nc2ccccc12)Nc1nccs1 | 0.655%
CC1CCN(CC(=O)n2c3c(c4ccccc42)CCCC3)CC1.Cl | 12.3%
CCCCC(=O)NC(Nc1nc(C2CC2)cs1)(C(=O)OCC)C(F)(F)F (stereo not drawn) | -1.7%
CCOC(=O)Cc1csc(-n2sc3ccccc3c2=O)n1 | 14.6%
Cc1ccc(S(=O)(=O)N2CCOCC2)cc1NC(=O)CSc1nnc(C2CC2)n1C1CC1 | 10.9%
O=C(Nc1ccc(Cc2ccncc2)cc1)C1CCC(N2C(=O)C3C4C=CC(C4)C3C2=O)CC1 (stereo not drawn) | 7.25%
COc1cccc2c1cc1c(=O)n(CC(=O)N3CCC(C)CC3)nc(C)n12 | 14.2%
O=C(N/N=C/c1ccccc1[N+](=O)[O-])c1ccc(CN2CCOCC2)cc1 | 4.45%
COc1ccc(CCNC(=O)c2cc3c(=O)n4cccc(C)c4nc3s2)cc1OC | 14.6%
Cc1cc(C)cc(N(C(=O)Cn2nnc(-c3ccccc3)n2)C(C(=O)NC2CCCCC2)c2ccccn2)c1 (stereo not drawn) | -1.15%
CCC1CCCN1Cn1cnc2c([nH]c3ccccc32)c1=O (stereo not drawn) | -45.7%
CCOC(=O)c1[nH]c(C)c(C(=O)NCCN2CCOCC2)c1C | 6.14%
CCOc1ccc(NC(=O)NC(=O)N(C)S(=O)(=O)c2ccc(C)cc2)cc1 | 1.19%
O=C(CNC(=O)Cn1ccc2ccccc2c1=O)NCCCN1CCN(c2cccc(Cl)c2)CC1 | -19.7%
O=C(c1cc2cc(F)ccc2[nH]1)N(Cc1cccnc1)CC1CCCN(C2CCCCC2)C1 (stereo not drawn) | -81%

Compound | hERG current change (%, negative = inhibition) at 1uM
COc1ccc(-c2oc3cccnc3c2-c2ccc(OC)nc2)cc1 | -4.58%
CC(OC(=O)CCCN1C(=O)c2ccccc2C1=O)C(=O)Nc1ncc(Cl)cc1Cl (stereo not drawn) | 1.28%
O=C(NCCc1ccccc1)C(=O)NCC1OCCN1S(=O)(=O)c1ccccc1 (stereo not drawn) | 1.2%
O=C(CN1CCCCCC1)N/N=C/c1cccs1 | 10.1%
COc1ccc(OC)c(C(=O)CN2C(=O)NC(C)(c3ccccc3)C2=O)c1 (stereo not drawn) | 9.66%
CCOC(=O)CSc1nc2ccccc2n1CC(=O)NC(C)(C)C | 14.1%
O=C(NC(=S)N1CCN(Cc2ccc3c(c2)OCO3)CC1)c1ccc(Cl)cc1 | -3.62%
O=C(c1ccco1)N1CCN(S(=O)(=O)c2ccccc2)CC1 | 13.1%
CCc1n[nH]c(=O)n1Cn1c(CC)n[nH]c1=O | 4.91%
O=C(Nc1cccc(C(=O)Nc2cccc(Br)c2)c1)c1ccccc1 | 10.3%
O=C(COC(=O)CCSc1ccccc1)Nc1cc(F)ccc1F | 16.8%
Cc1nn(-c2ccc(N3CCCCC3)nn2)c(C)c1CCC(=O)Nc1cccc(F)c1 | 3.39%
CCn1c(SCC(=O)NC(C)(C)C)nc(O)cc1=O | 12%
O=[N+]([O-])c1cccc(/C=N/Nc2nc(NCc3ccccc3)nc(N3CCOCC3)n2)c1O | 6.12%
COC(=O)CN1C(=O)S/C(=C/c2ccc(N3CCCCC3)o2)C1=O | 14.6%
CCN(CC)c1ccc(N=Cc2c(O)n(Cc3ccccc3)c(=O)[nH]c2=O)cc1 [14729657] | 5.11%
O=C(NC1(C(F)(F)F)NC(=O)N(CCc2ccccc2)C1=O)C1CC1 (stereo not drawn) | 4.33%
O=C(N1CCCC1)C12CC3CC(C1)CC(C(=O)N1CCCC1)(C3)C2 | 9.6%
CC(Oc1ccc(Cl)cc1Cl)C(=O)NCCC1=CCCCC1 (stereo not drawn) | 4.75%
COc1ccc(Cc2nnc(N)s2)cc1 | 12.3%
CC(C)C(=O)Nc1ccc(NC(=O)c2ccc3c(c2)OCO3)cc1 | 9%
